This is one part of the list.
System: HSkMC (human skeletal muscle cells)
Experiment: cytotoxicity call (relative viability < 0.9)
Details: 10 µM

Question: Which cytotoxicity call does the source give for `CC(C)C#Cc1cnc2c(c1)C(=O)N([C@@H](C)CO)C[C@@H](C)[C@H](CN(C)S(=O)(=O)c1cn(C)cn1)O2` here?
Answer: inactive

Question: `CCC(=O)C12CC3CC(CC(C3)C1)C2` was tested. Which cytotoxicity call did it give?
Answer: inactive

Question: With `C[C@@H]1CCCCO[C@H](CN(C)S(=O)(=O)c2cn(C)cn2)[C@@H](C)CN([C@H](C)CO)C(=O)c2cc(NS(C)(=O)=O)ccc2O1` as the molecule, how does the cytotoxicity call read?
Answer: inactive

Question: With `N[C@H]1CC[C@H](CCn2cc(C3CCCCC3)nn2)O[C@@H]1CO` as the molecule, how does the cytotoxicity call read?
Answer: inactive

Question: `COc1ccc2c3c(n(c2c1)C)[C@H](CO)N(C[C@]13CN(C1)C(=O)C)C(=O)CN1CCOCC1` was tested. Which cytotoxicity call did it give?
Answer: inactive

Question: With `C[C@@H]1CN([C@@H](C)CO)C(=O)c2cc(Br)cnc2O[C@H]1CN(C)Cc1cccc(C(=O)O)c1` as the molecule, how does the cytotoxicity call read?
Answer: inactive

Question: For `C[C@@H]1CCCCO[C@@H](CN(C)C(=O)c2ccccc2)[C@H](C)CN([C@@H](C)CO)C(=O)c2cc(NC(=O)C3CCCCC3)ccc2O1`, which cytotoxicity call is on record?
Answer: inactive

Question: With `O/N=C1\CCCCc2c1[nH]c1ccc(C3CCCCC3)cc21` as the molecule, how does the cytotoxicity call read?
Answer: inactive

Question: Which cytotoxicity call does the source give for `C[C@@H]1CCCCO[C@@H](CN(C)C(=O)Nc2ccc(C(F)(F)F)cc2)[C@@H](C)CN([C@@H](C)CO)C(=O)c2cc(NC(=O)C3CCCCC3)ccc2O1` here?
Answer: inactive

Question: How did the cytotoxicity call turn out when `CCNC(=O)C[C@@H]1CC[C@@H]2[C@H](COc3ccc(NS(=O)(=O)c4ccccc4C)cc3C(=O)N2C)O1` was run?
Answer: inactive

Question: Which cytotoxicity call does the source give for `CN1CCN(C(=O)C[C@H]2CC[C@H]3[C@@H](COC[C@@H](O)CN3Cc3ccc4c(c3)OCO4)O2)CC1` here?
Answer: inactive

Question: `COc1ccc(C(=O)Nc2ccc(CN3C(=O)[C@@]4(O[C@@H](CC(=O)N5Cc6ccccc6C[C@H]5CO)[C@H]([Si](C)(C)c5ccc(OC)cc5)[C@H]4C)c4ccccc43)cc2)cc1` was tested. Which cytotoxicity call did it give?
Answer: inactive

Question: Which cytotoxicity call does the source give for `O=C(O)C1CN(C(=O)c2cnccn2)C1` here?
Answer: inactive

Question: For `C[C@@H]1CCCCO[C@H](CN(C)Cc2ccc(C(F)(F)F)cc2)[C@@H](C)CN([C@@H](C)CO)C(=O)c2cc(N(C)C)ccc2O1`, which cytotoxicity call is on record?
Answer: inactive

Question: Which cytotoxicity call does the source give for `C[C@H](CO)N1C[C@H](C)[C@H](CN(C)S(C)(=O)=O)Oc2ccc(NS(=O)(=O)c3ccc(Cl)cc3)cc2CC1=O` here?
Answer: inactive

Question: `Cc1cc(C(=O)Nc2cccc3c2O[C@H](CN(C)Cc2ccccc2)[C@H](C)CN([C@H](C)CO)C3=O)n(C)n1` was tested. Which cytotoxicity call did it give?
Answer: inactive

Question: Which cytotoxicity call does the source give for `Cc1cc(C(=O)O)n(C)n1` here?
Answer: inactive

Question: `C[C@H]1CN([C@@H](C)CO)C(=O)c2cc(NC(=O)Nc3ccc(F)cc3)ccc2O[C@H]1CN(C)S(=O)(=O)c1cn(C)cn1` was tested. Which cytotoxicity call did it give?
Answer: inactive

Question: How did the cytotoxicity call turn out when `C[C@@H]1CN([C@H](C)CO)S(=O)(=O)c2ccc(Br)cc2O[C@@H]1CN(C)C(=O)NC1CCCC1` was run?
Answer: inactive

Question: With `COCC(=O)N1C[C@H](C)[C@H](OC)CN(C)C(=O)c2ccc(NC(=O)c3ccc(F)cc3)cc2OC[C@@H]1C` as the molecule, how does the cytotoxicity call read?
Answer: inactive

Question: How did the cytotoxicity call turn out when `C[C@H]1CN([C@@H](C)CO)C(=O)Cc2cc(NS(C)(=O)=O)ccc2O[C@H]1CN(C)C` was run?
Answer: inactive

Question: With `C[C@@H]1CN([C@H](C)CO)C(=O)c2cc(NS(=O)(=O)c3cccs3)ccc2O[C@@H]1CN(C)S(=O)(=O)c1cn(C)cn1` as the molecule, how does the cytotoxicity call read?
Answer: inactive

Question: Which cytotoxicity call does the source give for `O=C(C[C@@H]1CC[C@H]2[C@@H](COC[C@H](O)CN2C(=O)c2ccccc2F)O1)N1CCN(c2ccccc2)CC1` here?
Answer: inactive

Question: For `O=C(C[C@@H]1C[C@@H]2c3cc(NC(=O)NC4CCCC4)ccc3O[C@@H]2[C@H](CO)O1)NCc1ccc(Oc2ccccc2)cc1`, which cytotoxicity call is on record?
Answer: inactive

Question: With `C[C@@H]1CCCCO[C@H](CN(C)Cc2ccc(C(F)(F)F)cc2)[C@@H](C)CN([C@@H](C)CO)C(=O)c2cc(NC(=O)c3ccccc3)ccc2O1` as the molecule, how does the cytotoxicity call read?
Answer: inactive

Question: How did the cytotoxicity call turn out when `COc1ccc(CN(C)C[C@H]2Oc3ccc(NS(=O)(=O)c4cn(C)cn4)cc3C(=O)N([C@H](C)CO)C[C@@H]2C)cc1` was run?
Answer: inactive

Question: For `C[C@@H]1CN([C@@H](C)CO)S(=O)(=O)c2ccc(C#Cc3ccncc3)cc2O[C@@H]1CN(C)C(=O)C1CCC1`, which cytotoxicity call is on record?
Answer: inactive

Question: With `C[C@@H]1CN([C@@H](C)CO)C(=O)Cc2cc(NC(=O)Cn3cnnn3)ccc2O[C@@H]1CN(C)S(=O)(=O)c1ccccc1` as the molecule, how does the cytotoxicity call read?
Answer: inactive

Question: With `COc1ccc(S(=O)(=O)Nc2ccc3c(c2)C(=O)N([C@@H](C)CO)C[C@@H](C)[C@@H](CN(C)Cc2ccc(C(=O)O)cc2)OCCCC[C@H](C)O3)cc1` as the molecule, how does the cytotoxicity call read?
Answer: inactive

Question: Which cytotoxicity call does the source give for `C[C@@H]1CCCCO[C@@H](CN(C)C(=O)c2ccccc2)[C@@H](C)CN([C@@H](C)CO)C(=O)c2cc(NC(=O)Nc3ccc4c(c3)OCO4)ccc2O1` here?
Answer: inactive

Question: How did the cytotoxicity call turn out when `C[C@H]1CN([C@@H](C)CO)C(=O)c2cccc(NC(=O)c3nc4ccccc4s3)c2O[C@H]1CN(C)Cc1ccc(C(F)(F)F)cc1` was run?
Answer: inactive

Question: With `C[C@H](CO)N1C[C@H](C)[C@H](CN(C)Cc2ccc3c(c2)OCO3)Oc2ccc(NC(=O)Cn3cnnn3)cc2CC1=O` as the molecule, how does the cytotoxicity call read?
Answer: inactive

Question: `C[C@@H]1CN([C@H](C)CO)C(=O)c2cc(NC(=O)C3CC3)ccc2O[C@H]1CN(C)S(=O)(=O)c1ccccc1` was tested. Which cytotoxicity call did it give?
Answer: inactive

Question: For `CC(C)NC(=O)N(C)C[C@@H]1OCCCC[C@H](C)Oc2ccc(NC(=O)C3CCCCC3)cc2C(=O)N([C@@H](C)CO)C[C@H]1C`, which cytotoxicity call is on record?
Answer: inactive

Question: `COc1ccc(S(=O)(=O)N(C)C[C@@H]2Oc3ccc(NS(=O)(=O)c4ccc(F)cc4)cc3CC(=O)N([C@H](C)CO)C[C@@H]2C)cc1` was tested. Which cytotoxicity call did it give?
Answer: inactive

Question: For `O=C1C=C2CC3(O)COc4c(ccc(O)c4O)C3=C2C=C1O` (stereo not given), which cytotoxicity call is on record?
Answer: inactive

Question: With `O=C(C[C@@H]1C[C@H]2c3cc(NS(=O)(=O)c4ccc(F)cc4)ccc3O[C@H]2[C@H](CO)O1)NCc1cccc(F)c1` as the molecule, how does the cytotoxicity call read?
Answer: inactive

Question: `CCNC(=O)C[C@H]1C=C[C@@H](NC(=O)C2CC2)[C@H](CO)O1` was tested. Which cytotoxicity call did it give?
Answer: inactive

Question: For `C[C@H]1CN([C@@H](C)CO)C(=O)c2cc(C#CCc3ccccc3)cnc2O[C@@H]1CN(C)C(=O)Cc1cccnc1`, which cytotoxicity call is on record?
Answer: inactive

Question: How did the cytotoxicity call turn out when `CC1CCC2(C(=O)O)CCC3(C)C(=CCC4C5(C)CC(O)C(O)C(C)(CO)C5C(O)CC43C)C2C1C` (stereo not given) was run?
Answer: inactive

Reference: the antibiotic and cytotoxicity screens of Wong et al. (2023)
